# Results: the supplement of paper PMC8728848
# The other results are listed elsewhere or left out.
# B1: Blon2468mut (Bifidobacterium longum) (protein)
# chain: MTFIKQMMPRYVASMTAGIVAAAMAATCAFAPVANADAVSPTQETIQSTGRHFMVYYRAWRDVTMKGVNTDLPDDNWISMYDIPYGVDVVNIFSYVPSGQEEQAQPFYDKLKSDYAPYLHSRGIKLVRGIDYTGVAVNGFRTFMKEQNKTESEATEADYDAYAKQVIDKYMISVGLDGLDIDMQAHPNDADVKISDNVIRALSKHIGPKSAKPDTTMFLYDTNGSYLNPFKNVAECFDYVAYQQYGSSSDRTARAAADYQPYIGNEFVPGLTFPEEGDMNNRWYDATEPYEESHFYQVASYVREHNLGGMFVYALDRDGRNYDEDLRRIVPSNLLWTKTAIAESEGMALDTAKTAANHYLDRMSLRQVIDDNAASADKARDMVGKAANLYETNKAVLGGDYGEGFSNTYDPTLEAGLLGIDISVLQQQIDKSSEIIGADTAESDAKTALRMARDAAIDGLTGKIYTADQVSAWSQALKAALDATVPVPTPDSTDQNGNRDKVTNHKVQGQPKQLSATGISTDIIVAVGVTLAIAGVALSLSRKLS
# Legend:
# Assay in all cases: glycan array binding signal (z-score within array); higher = stronger binding
# Details in all cases: glycan notation: IUPAC condensed, linker removed
# [1] = molecular target: Neu5Ac(a2-6)Gal(b1-4)GlcNAc(b1-2)Man(a1-3)[Neu5Ac(a2-3)Gal(b1-4)GlcNAc(b1-2)Man(a1-6)]Man(b1-4)GlcNAc(b1-4)GlcNAc
# Procedure, shortened: (§1)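 The Consortium for Functional Glycomics database supplied 3228 glycan arrays, of which those lacking an available protein sequence were dropped. The binding signal, a within-array Z-score, was averaged across arrays of the same protein sequence and across linkers. Negative scores can be read as non-binding.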
# [2] = molecular target: Neu5Ac(a2-6)Gal(b1-4)GlcNAc(b1-2)Man(a1-3)[Neu5Ac(a2-6)Gal(b1-4)GlcNAc(b1-2)Man(a1-6)]Man(b1-4)GlcNAc(b1-4)GlcNAc
# Procedure, shortened: as §1
# [3] = molecular target: Neu5Ac(a2-6)Gal(b1-4)GlcNAc(b1-2)Man(a1-3)[Neu5Ac(a2-6)Gal(b1-4)GlcNAc(b1-2)Man(a1-6)]Man(b1-4)GlcNAc(b1-4)[Fuc(a1-6)]GlcNAc
# Procedure, shortened: as §1
# [4] = molecular target: Neu5Ac(a2-6)Gal(b1-4)GlcNAc(b1-2)Man(a1-6)Man(b1-4)GlcNAc(b1-4)GlcNAc
# Procedure, shortened: as §1
# [5] = molecular target: Neu5Ac(a2-6)Gal(b1-4)GlcNAc(b1-2)Man(a1-6)[Gal(b1-4)GlcNAc(b1-2)Man(a1-3)]Man(b1-4)GlcNAc(b1-4)GlcNAc
# Procedure, shortened: as §1
# [6] = molecular target: Neu5Ac(a2-6)Gal(b1-4)GlcNAc(b1-2)Man(a1-6)[GlcNAc(b1-2)Man(a1-3)]Man(b1-4)GlcNAc(b1-4)GlcNAc
# Procedure, shortened: as §1
# [7] = molecular target: Neu5Ac(a2-6)Gal(b1-4)GlcNAc(b1-2)Man(a1-6)[Man(a1-3)]Man(b1-4)GlcNAc(b1-4)GlcNAc
# Procedure, shortened: as §1
# [8] = molecular target: Neu5Ac(a2-6)Gal(b1-4)GlcNAc(b1-2)[Neu5Ac(a2-6)Gal(b1-4)GlcNAc(b1-4)]Man(a1-3)[GlcNAc(b1-4)][Neu5Ac(a2-6)Gal(b1-4)GlcNAc(b1-2)[Neu5Ac(a2-6)Gal(b1-4)GlcNAc(b1-6)]Man(a1-6)]Man(b1-4)GlcNAc(b1-4)GlcNAc
# Procedure, shortened: as §1
# [9] = molecular target: Neu5Ac(a2-6)Gal(b1-4)GlcNAc(b1-2)[Neu5Ac(a2-6)Gal(b1-4)GlcNAc(b1-4)]Man(a1-3)[GlcNAc(b1-4)][Neu5Ac(a2-6)Gal(b1-4)GlcNAc(b1-4)Man(a1-6)]Man(b1-4)GlcNAc(b1-4)GlcNAc
# Procedure, shortened: as §1
# [10] = molecular target: Neu5Ac(a2-6)Gal(b1-4)GlcNAc(b1-2)[Neu5Ac(a2-6)Gal(b1-4)GlcNAc(b1-6)]Man(a1-6)[Neu5Ac(a2-6)Gal(b1-4)GlcNAc(b1-2)Man(a1-3)][GlcNAc(b1-4)]Man(b1-4)GlcNAc(b1-4)GlcNAc
# Procedure, shortened: as §1
# [11] = molecular target: Neu5Ac(a2-6)Gal(b1-4)GlcNAc(b1-3)Gal(b1-3)GlcNAc
# Procedure, shortened: as §1
# [12] = molecular target: Neu5Ac(a2-6)Gal(b1-4)GlcNAc(b1-3)Gal(b1-4)GlcNAc
# Procedure, shortened: as §1
# [13] = molecular target: Neu5Ac(a2-6)Gal(b1-4)GlcNAc(b1-3)Gal(b1-4)GlcNAc(b1-2)Man(a1-3)[Neu5Ac(a2-6)Gal(b1-4)GlcNAc(b1-3)Gal(b1-4)GlcNAc(b1-2)Man(a1-6)]GalNAc
# Procedure, shortened: as §1
# [14] = molecular target: Neu5Ac(a2-6)Gal(b1-4)GlcNAc(b1-3)Gal(b1-4)GlcNAc(b1-3)Gal(b1-4)GlcNAc
# Procedure, shortened: as §1
# [15] = molecular target: Neu5Ac(a2-6)Gal(b1-4)GlcNAc(b1-3)Gal(b1-4)GlcNAc(b1-3)Gal(b1-4)GlcNAc(b1-2)Man(a1-3)[Neu5Ac(a2-6)Gal(b1-4)GlcNAc(b1-3)Gal(b1-4)GlcNAc(b1-3)Gal(b1-4)GlcNAc(b1-2)Man(a1-6)]GalNAc
# Procedure, shortened: as §1
# [16] = molecular target: Neu5Ac(a2-6)Gal(b1-4)GlcNAc(b1-3)Gal(b1-4)GlcNAc(b1-3)GalNAc
# Procedure, shortened: as §1
# [17] = molecular target: Neu5Ac(a2-6)Gal(b1-4)GlcNAc(b1-3)Gal(b1-4)GlcNAc(b1-3)[Neu5Ac(a2-6)Gal(b1-4)GlcNAc(b1-3)Gal(b1-4)GlcNAc(b1-6)]GalNAc
# Procedure, shortened: as §1
# [18] = molecular target: Neu5Ac(a2-6)Gal(b1-4)GlcNAc(b1-3)Gal(b1-4)GlcNAc(b1-6)[Gal(b1-3)]GalNAc
# Procedure, shortened: as §1
# [19] = molecular target: Neu5Ac(a2-6)Gal(b1-4)GlcNAc(b1-3)Gal(b1-4)[Fuc(a1-3)]GlcNAc(b1-3)Gal(b1-4)[Fuc(a1-3)]GlcNAc
# Procedure, shortened: as §1
# [20] = molecular target: Neu5Ac(a2-6)Gal(b1-4)GlcNAc(b1-3)GalNAc
# Procedure, shortened: as §1
# [21] = molecular target: Neu5Ac(a2-6)Gal(b1-4)GlcNAc(b1-3)[Neu5Ac(a2-6)Gal(b1-4)GlcNAc(b1-6)]GalNAc
# Procedure, shortened: as §1
# [22] = molecular target: Neu5Ac(a2-6)Gal(b1-4)GlcNAc(b1-6)GalNAc
# Procedure, shortened: as §1
# [23] = molecular target: Neu5Ac(a2-6)Gal(b1-4)GlcNAc(b1-6)[Gal(b1-3)GlcNAc(b1-3)]Gal(b1-4)Glc
# Procedure, shortened: as §1
# [24] = molecular target: Neu5Ac(a2-6)Gal(b1-4)GlcNAc(b1-6)[Gal(b1-3)]GalNAc
# Procedure, shortened: as §1
# [25] = molecular target: Neu5Ac(a2-6)Gal(b1-4)GlcNAc6S
# Procedure, shortened: as §1
# Neu5Ac(a2-6)GalNAc = molecular target: Neu5Ac(a2-6)GalNAc
# Procedure, shortened: as §1
# [26] = molecular target: Neu5Ac(a2-6)GalNAc(b1-4)GlcNAc
# Procedure, shortened: as §1
# [27] = molecular target: Neu5Ac(a2-6)GalNAc(b1-4)GlcNAc6S
# Procedure, shortened: as §1
# [28] = molecular target: Neu5Ac(a2-6)GlcNAc(b1-4)GlcNAc
# Procedure, shortened: as §1
# [29] = molecular target: Neu5Ac(a2-6)GlcNAc(b1-4)GlcNAc(b1-4)GlcNAc
# Procedure, shortened: as §1
binder,measurement,setting,value
B1,glycan array binding signal (z-score),[1],0.012
same,glycan array binding signal (z-score),[2],-0.032
same,glycan array binding signal (z-score),[3],-0.077
same,glycan array binding signal (z-score),[4],-0.076
same,glycan array binding signal (z-score),[5],-0.062
same,glycan array binding signal (z-score),[6],-0.076
same,glycan array binding signal (z-score),[7],-0.065
same,glycan array binding signal (z-score),[8],-0.029
same,glycan array binding signal (z-score),[9],-0.086
same,glycan array binding signal (z-score),[10],-0.069
same,glycan array binding signal (z-score),[11],-0.081
same,glycan array binding signal (z-score),[12],-0.042
same,glycan array binding signal (z-score),[13],-0.073
same,glycan array binding signal (z-score),[14],-0.077
same,glycan array binding signal (z-score),[15],-0.054
same,glycan array binding signal (z-score),[16],-0.067
same,glycan array binding signal (z-score),[17],-0.059
same,glycan array binding signal (z-score),[18],-0.075
same,glycan array binding signal (z-score),[19],-0.078
same,glycan array binding signal (z-score),[20],-0.056
same,glycan array binding signal (z-score),[21],-0.036
same,glycan array binding signal (z-score),[22],-0.075
same,glycan array binding signal (z-score),[23],-0.066
same,glycan array binding signal (z-score),[24],-0.068
same,glycan array binding signal (z-score),[25],-0.055
same,glycan array binding signal (z-score),Neu5Ac(a2-6)GalNAc,-0.065
same,glycan array binding signal (z-score),[26],0.002
same,glycan array binding signal (z-score),[27],-0.085
same,glycan array binding signal (z-score),[28],-0.077
same,glycan array binding signal (z-score),[29],-0.051
